# Assay results: the supplement of paper PMC8728848
# The other results are listed elsewhere or left out.
# Experiments:
# Experiment in all cases: glycan array binding signal (z-score within array); higher = stronger binding
# Conditions in all cases: glycan notation: IUPAC condensed, linker removed
# [1] = molecular target: Neu5Ac(a2-3)Gal(b1-4)GlcNAc(b1-2)[Neu5Ac(a2-3)Gal(b1-4)GlcNAc(b1-4)]Man(a1-3)[GlcNAc(b1-4)][Neu5Ac(a2-3)Gal(b1-4)GlcNAc(b1-4)Man(a1-6)]Man(b1-4)GlcNAc(b1-4)GlcNAc
# Outline: (§1)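 Glycan array data came from 3228 arrays in the Consortium for Functional Glycomics database, and only arrays with an available protein sequence were kept. Glycan names were put into IUPAC-condensed notation, and columns mapping to the same glycan were averaged. The binding signal is a within-array Z-score, averaged across arrays of one protein sequence run at different concentrations or buffers and across linkers. A negative Z-score can be read as non-binding.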
# [2] = molecular target: Neu5Ac(a2-3)Gal(b1-4)GlcNAc(b1-2)[Neu5Ac(a2-3)Gal(b1-4)GlcNAc(b1-6)]Man(a1-6)[Neu5Ac(a2-3)Gal(b1-4)GlcNAc(b1-2)Man(a1-3)]Man(b1-4)GlcNAc(b1-4)GlcNAc
# Outline: as §1
# [3] = molecular target: Neu5Ac(a2-3)Gal(b1-4)GlcNAc(b1-2)[Neu5Ac(a2-3)Gal(b1-4)GlcNAc(b1-6)]Man(a1-6)[Neu5Ac(a2-3)Gal(b1-4)GlcNAc(b1-2)Man(a1-3)][GlcNAc(b1-4)]Man(b1-4)GlcNAc(b1-4)GlcNAc
# Outline: as §1
# [4] = molecular target: Neu5Ac(a2-3)Gal(b1-4)GlcNAc(b1-3)Gal
# Outline: as §1
# [5] = molecular target: Neu5Ac(a2-3)Gal(b1-4)GlcNAc(b1-3)Gal(b1-3)GlcNAc
# Outline: as §1
# [6] = molecular target: Neu5Ac(a2-3)Gal(b1-4)GlcNAc(b1-3)Gal(b1-4)GlcNAc
# Outline: as §1
# [7] = molecular target: Neu5Ac(a2-3)Gal(b1-4)GlcNAc(b1-3)Gal(b1-4)GlcNAc(b1-2)Man(a1-3)[Neu5Ac(a2-3)Gal(b1-4)GlcNAc(b1-3)Gal(b1-4)GlcNAc(b1-2)Man(a1-6)]Man(b1-4)GlcNAc(b1-4)GlcNAc
# Outline: as §1
# [8] = molecular target: Neu5Ac(a2-3)Gal(b1-4)GlcNAc(b1-3)Gal(b1-4)GlcNAc(b1-3)Gal(b1-4)GlcNAc
# Outline: as §1
# [9] = molecular target: Neu5Ac(a2-3)Gal(b1-4)GlcNAc(b1-3)Gal(b1-4)GlcNAc(b1-3)Gal(b1-4)GlcNAc(b1-2)Man(a1-3)[Neu5Ac(a2-3)Gal(b1-4)GlcNAc(b1-3)Gal(b1-4)GlcNAc(b1-3)Gal(b1-4)GlcNAc(b1-2)Man(a1-6)]GalNAc
# Outline: as §1
# [10] = molecular target: Neu5Ac(a2-3)Gal(b1-4)GlcNAc(b1-3)Gal(b1-4)GlcNAc(b1-3)GalNAc
# Outline: as §1
# [11] = molecular target: Neu5Ac(a2-3)Gal(b1-4)GlcNAc(b1-3)Gal(b1-4)GlcNAc(b1-3)[Neu5Ac(a2-3)Gal(b1-4)GlcNAc(b1-3)Gal(b1-4)GlcNAc(b1-6)]GalNAc
# Outline: as §1
# [12] = molecular target: Neu5Ac(a2-3)Gal(b1-4)GlcNAc(b1-3)Gal(b1-4)GlcNAc(b1-6)[Gal(b1-3)]GalNAc
# Outline: as §1
# [13] = molecular target: Neu5Ac(a2-3)Gal(b1-4)GlcNAc(b1-3)Gal(b1-4)[Fuc(a1-3)]GlcNAc
# Outline: as §1
# [14] = molecular target: Neu5Ac(a2-3)Gal(b1-4)GlcNAc(b1-3)GalNAc
# Outline: as §1
# [15] = molecular target: Neu5Ac(a2-3)Gal(b1-4)GlcNAc(b1-3)[Neu5Ac(a2-3)Gal(b1-4)GlcNAc(b1-6)]GalNAc
# Outline: as §1
# [16] = molecular target: Neu5Ac(a2-3)Gal(b1-4)GlcNAc(b1-6)GalNAc
# Outline: as §1
# [17] = molecular target: Neu5Ac(a2-3)Gal(b1-4)GlcNAc(b1-6)[Gal(b1-3)]GalNAc
# Outline: as §1
# [18] = molecular target: Neu5Ac(a2-3)Gal(b1-4)GlcNAc(b1-6)[Neu5Ac(a2-3)Gal(b1-3)]GalNAc
# Outline: as §1
# [19] = molecular target: Neu5Ac(a2-3)Gal(b1-4)GlcNAc6S
# Outline: as §1
# [20] = molecular target: Neu5Ac(a2-3)Gal(b1-4)[Fuc(a1-3)]GlcNAc
# Outline: as §1
# [21] = molecular target: Neu5Ac(a2-3)Gal(b1-4)[Fuc(a1-3)]GlcNAc(b1-2)Man
# Outline: as §1
# [22] = molecular target: Neu5Ac(a2-3)Gal(b1-4)[Fuc(a1-3)]GlcNAc(b1-3)Gal
# Outline: as §1
# [23] = molecular target: Neu5Ac(a2-3)Gal(b1-4)[Fuc(a1-3)]GlcNAc(b1-3)Gal(b1-4)GlcNAc
# Outline: as §1
# [24] = molecular target: Neu5Ac(a2-3)Gal(b1-4)[Fuc(a1-3)]GlcNAc(b1-3)Gal(b1-4)[Fuc(a1-3)]GlcNAc(b1-3)Gal(b1-4)[Fuc(a1-3)]GlcNAc
# Outline: as §1
# [25] = molecular target: Neu5Ac(a2-3)Gal(b1-4)[Fuc(a1-3)]GlcNAc(b1-3)GalNAc
# Outline: as §1
# [26] = molecular target: Neu5Ac(a2-3)Gal(b1-4)[Fuc(a1-3)]GlcNAc(b1-6)[Gal(b1-3)]GalNAc
# Outline: as §1
# [27] = molecular target: Neu5Ac(a2-3)Gal(b1-4)[Fuc(a1-3)]GlcNAc(b1-6)[Neu5Ac(a2-3)Gal(b1-3)]GalNAc
# Outline: as §1
# [28] = molecular target: Neu5Ac(a2-3)Gal(b1-4)[Fuc(a1-3)]GlcNAc6S
# Outline: as §1
# [29] = molecular target: Neu5Ac(a2-3)Gal6S(b1-4)GlcNAc
# Outline: as §1
# [30] = molecular target: Neu5Ac(a2-3)Gal6S(b1-4)[Fuc(a1-3)]GlcNAc
# Outline: as §1
# [31] = molecular target: Neu5Ac(a2-3)GalNAc
# Outline: as §1
# [32] = molecular target: Neu5Ac(a2-3)GalNAc(b1-4)GlcNAc
# Outline: as §1
# [33] = molecular target: Neu5Ac(a2-3)[GalNAc(b1-4)]Gal(b1-4)Glc
# Outline: as §1
# [34] = molecular target: Neu5Ac(a2-3)[GalNAc(b1-4)]Gal(b1-4)GlcNAc
# Outline: as §1
# [35] = molecular target: Neu5Ac(a2-3)[GalNAc(b1-4)]Gal(b1-4)GlcNAc(b1-3)GalNAc
# Outline: as §1
# [36] = molecular target: Neu5Ac(a2-3)[Neu5Ac(a2-6)]GalNAc
# Outline: as §1
# [37] = molecular target: Neu5Ac(a2-6)Gal
# Outline: as §1
binder,measurement,setting,value
PX9937A-bvu-521-23-521 (Bacteroides vulgatus) (protein) LDLAPEDYYGAGNFWKEASQPKAFMLGLHAQLRSYYDMFYTLGELRGGTQRVGTSSLNTSLNYADIRSQNISEDIPGISNWNGLYSPIMQVNHFIQEVENGCTFLDDATRSRYLGQAYGMRALYYFMLYRTFGGVPLITKVDILDGKPSADKFYVERATPEATMEFIKADINKSENYFGNNTSFDAYDWSRYATLMLKAEIYMWAAKVSITGFTATGATDLQTAKTALSGIIGHFELMDNFASIFSCDNKKNTEIIFAMPFIEGEASNDGGRFLYQDAVFLGQAYGRNGKVIEKDTLNLKGTGGVFRDEYTEDFWKTFKEGDSRRDATFMEYYMKNDNGTLSEFGCVMKKRIGTINSNDNRIYISDIPVYRYADALLMMAEIENGLNNPCASYINEVRKRAYGDTFEENKYTEGSYAENELAILQERDKEFVSEGKRWFDVLRMHDASGRSLVFSANANYPGTNPILGTEEAYKMLWPVNIGTLNVNPLLTQTPGYGKK,glycan array binding signal (z-score),[1],-0.452
same,glycan array binding signal (z-score),[2],0.243
same,glycan array binding signal (z-score),[3],-0.581
same,glycan array binding signal (z-score),[4],-0.39
same,glycan array binding signal (z-score),[5],0.011
same,glycan array binding signal (z-score),[6],-0.389
same,glycan array binding signal (z-score),[7],-0.391
same,glycan array binding signal (z-score),[8],-0.363
same,glycan array binding signal (z-score),[9],-0.01
same,glycan array binding signal (z-score),[10],-0.129
same,glycan array binding signal (z-score),[11],1.52
same,glycan array binding signal (z-score),[12],-0.387
same,glycan array binding signal (z-score),[13],-0.048
same,glycan array binding signal (z-score),[14],-0.703
same,glycan array binding signal (z-score),[15],-0.163
same,glycan array binding signal (z-score),[16],-0.47
same,glycan array binding signal (z-score),[17],-0.546
same,glycan array binding signal (z-score),[18],-0.376
same,glycan array binding signal (z-score),[19],-0.336
same,glycan array binding signal (z-score),[20],-0.292
same,glycan array binding signal (z-score),[21],-0.364
same,glycan array binding signal (z-score),[22],0.036
same,glycan array binding signal (z-score),[23],0.101
same,glycan array binding signal (z-score),[24],-0.051
same,glycan array binding signal (z-score),[25],0.29
same,glycan array binding signal (z-score),[26],-0.51
same,glycan array binding signal (z-score),[27],0.212
same,glycan array binding signal (z-score),[28],0.059
same,glycan array binding signal (z-score),[29],-0.286
same,glycan array binding signal (z-score),[30],-0.425
same,glycan array binding signal (z-score),[31],0.578
same,glycan array binding signal (z-score),[32],0.321
same,glycan array binding signal (z-score),[33],0.944
same,glycan array binding signal (z-score),[34],-0.075
same,glycan array binding signal (z-score),[35],0.377
same,glycan array binding signal (z-score),[36],-0.584
same,glycan array binding signal (z-score),[37],0.054
